Data on 35 sequences can be found in the supplement of paper PMC10338343.

± gives the standard deviation. The list shows a part of the results, in another mix than the full data.

In this test the test system is MIWI (PIWIL1) piRISC loaded with L1MC piRNA (30 nt). In words: pre-steady-state target cleavage rate (min^-1); MIWI and MILI are mouse PIWI proteins and EfPiwi is from a freshwater sponge; tags in brackets are library labels; higher = faster piRNA-guided slicing of the target. The following applies: guide: L1MC piRNA 5'p-UAACUAAAUACUAUGCAAGCUGUAGGUCCU; auxiliary factor: 500 nM mouse GTSF1. In a few lines: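 Cleave-'n-Seq used a transcribed, DNA-blocked target RNA library at 0.1 nM and active affinity-purified piRISC with one synthetic guide at 1 nM, with or without 500 nM GTSF1 partner protein, in HEPES–potassium acetate buffer at 33 °C for 0–8 or 0–960 min. Uncleaved targets were sequenced and normalised to depth and to weakly complementary targets, and three trials were pooled with k3 capped at 0.0001 min^-1. The pre-steady-state cleavage rate was estimated by a burst-and-steady-state fit.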
As for UCCUGGUACAGCUUGCAUAGAUAUUUAGUUA, the “pre-steady-state target cleavage rate” value is 0.00536 ± 0.0054.

On to UCCUGCUACAGCUUGCAUAGUAUAUUCAAA, for which the “pre-steady-state target cleavage rate” value worked out at 0.358 ± 0.066.

For UCCUGGAACAGCUUGCAUAGUAAAUAGUAA, the “pre-steady-state target cleavage rate” value came to 0.28 ± 0.057.

With UCCUGGUACAGCUUGCUAAGUAUUUAGAAA, the “pre-steady-state target cleavage rate” value worked out at 0.0221 ± 0.0088.

Take UCGACCUACAGCUUGCAUAGUAAAUACAAA: the “pre-steady-state target cleavage rate” value came to 0.177 ± 0.045.

For the sequence UCGACCUACAGCUUGCUAUGUAUUUAGUAA, the “pre-steady-state target cleavage rate” value worked out at 0.0653 ± 0.011.

Turning to UCCUGGAUGUCGAACGUAAGUAUUUACAAA, the “pre-steady-state target cleavage rate” value is below 0.0001.

Regarding UCCACCUACAGCUUCCAUAGUAAUUAGUUA, the “pre-steady-state target cleavage rate” value is 0.0401 ± 0.015.

Consider UCCUGGUACAGCUUGCAUAGUAAAUAGUAA, for which the “pre-steady-state target cleavage rate” value amounted to 0.275 ± 0.056.

For UCCUGGAACAGCUUGGUUAGUAUUUAGAAA, the “pre-steady-state target cleavage rate” value was determined as 0.362 ± 0.058.

Turning to UCCUGGAUGUCGAUGCUUAGUAUUUUGUUA, the “pre-steady-state target cleavage rate” value is below 0.0001.

In the case of UGGACCUACAGCUUGCAUAGUAAAUAGAAA, the “pre-steady-state target cleavage rate” value stood at 0.16 ± 0.04.

Turning to UCCUGCUACAGCUUGACAUAGUAUUUAGUUA, the “pre-steady-state target cleavage rate” value stood at 0.386 ± 0.04.

On to UCCUGGAUGAGCUUGCUUAGUAUUUACAAA, for which the “pre-steady-state target cleavage rate” value stood at 0.019 ± 0.0064.

Consider UCGACCUACAGCUUGCUUAGUAUUUUCAAA, for which the “pre-steady-state target cleavage rate” value was determined as 0.329 ± 0.048.

UCCACCUACAGCUUGCAAUGUAUUUAGAAA: the “pre-steady-state target cleavage rate” value was 0.106 ± 0.02.

UCCACCUAGUCCUUGCAUAGUAUUUUCAAA: the “pre-steady-state target cleavage rate” value was 0.0843 ± 0.021.

Turning to UCCUGGAUGAGCUUCCAUAGUAUUUAGUUA, the “pre-steady-state target cleavage rate” value came to 0.0314 ± 0.014.

UCCUGGAUGUGGUUGCAUAGUAUAUAGUUA: the “pre-steady-state target cleavage rate” value came out at 0.00676 ± 0.0031.

Take UCCACCUACAGCUUGCAUAGUUAAUAGAAA: the “pre-steady-state target cleavage rate” value was 0.0675 ± 0.022.

For the sequence AGGACCUACAGCUUGCAGUAGUAUUUAGUUA, the “pre-steady-state target cleavage rate” value stood at 0.349 ± 0.14.

For the sequence UCCACCUACAGCUUGCAUAGUUUUUAGAAA, the “pre-steady-state target cleavage rate” value is 0.163 ± 0.033.

UGGACCUACAGCUUGCAUAGUAAAAAGAAA: the “pre-steady-state target cleavage rate” value is 0.0744 ± 0.025.

Turning to UCCACCUACAGCUUGCAUAGUAAUUACAAA, the “pre-steady-state target cleavage rate” value came to 0.323 ± 0.061.

As to UCCUCCUACAGCUUGCAUAGUAAAUUCAAA, the “pre-steady-state target cleavage rate” value was 0.142 ± 0.041.

For the sequence UCCUCCUACAGCUUCCAUACUAUUUAGUUA, the “pre-steady-state target cleavage rate” value worked out at 0.0394 ± 0.015.

Take UCCUGGAUGUGCUAGCAUACUAUUUAGUUA: the “pre-steady-state target cleavage rate” value was found to be 0.00834 ± 0.004.

AGGACCUACAGGUUCCAUAGUAUUUAGUUA: the “pre-steady-state target cleavage rate” value turned out to be 0.659 ± 0.17.

For UCCUGGAUCAGCUUGCAUAUAUUUAGUUA, the “pre-steady-state target cleavage rate” value turned out to be 0.0178 ± 0.0053.

Regarding UCCUGGAUGAGCUUGGAUUGUAUUUAGUUA, the “pre-steady-state target cleavage rate” value was determined as 0.00776 ± 0.0043.

Turning to UCCUCCUACAGCUUGCAUAGAUUUUAGUAA, the “pre-steady-state target cleavage rate” value worked out at 0.117 ± 0.028.

UCCUGGAACAGCUACGAUAGUAUUUAGUAA: the “pre-steady-state target cleavage rate” value is 0.00743 ± 0.0044.

Consider UCCUGGAACAGCUUGCAUACUAUUUACAAA, for which the “pre-steady-state target cleavage rate” value is 0.0814 ± 0.019.

UCCUGGAUGUGCUUGCAUAGUAUAUAGAUA: the “pre-steady-state target cleavage rate” value was found to be 0.00749 ± 0.0037.

Regarding AGGACCUACAGCUAGCAUAGUAUUUACAAA, the “pre-steady-state target cleavage rate” value is 0.474 ± 0.071.
